Experimental data from article PMC4336329 (PLoS ONE, 2015).
Hit rate of the full screen: of about 310,000 compounds, about 2,200 (0.71%) showed an effect of 50% or more. Effects have a minus sign here. The list shows a part of the results.

biological target: human ether-à-go-go-related gene (hERG) potassium channel (human, UniProt Q12809); experiment: primary screen, population patch clamp on CHO cells stably expressing hERG
Sequence (Q12809 whole entry, looked up): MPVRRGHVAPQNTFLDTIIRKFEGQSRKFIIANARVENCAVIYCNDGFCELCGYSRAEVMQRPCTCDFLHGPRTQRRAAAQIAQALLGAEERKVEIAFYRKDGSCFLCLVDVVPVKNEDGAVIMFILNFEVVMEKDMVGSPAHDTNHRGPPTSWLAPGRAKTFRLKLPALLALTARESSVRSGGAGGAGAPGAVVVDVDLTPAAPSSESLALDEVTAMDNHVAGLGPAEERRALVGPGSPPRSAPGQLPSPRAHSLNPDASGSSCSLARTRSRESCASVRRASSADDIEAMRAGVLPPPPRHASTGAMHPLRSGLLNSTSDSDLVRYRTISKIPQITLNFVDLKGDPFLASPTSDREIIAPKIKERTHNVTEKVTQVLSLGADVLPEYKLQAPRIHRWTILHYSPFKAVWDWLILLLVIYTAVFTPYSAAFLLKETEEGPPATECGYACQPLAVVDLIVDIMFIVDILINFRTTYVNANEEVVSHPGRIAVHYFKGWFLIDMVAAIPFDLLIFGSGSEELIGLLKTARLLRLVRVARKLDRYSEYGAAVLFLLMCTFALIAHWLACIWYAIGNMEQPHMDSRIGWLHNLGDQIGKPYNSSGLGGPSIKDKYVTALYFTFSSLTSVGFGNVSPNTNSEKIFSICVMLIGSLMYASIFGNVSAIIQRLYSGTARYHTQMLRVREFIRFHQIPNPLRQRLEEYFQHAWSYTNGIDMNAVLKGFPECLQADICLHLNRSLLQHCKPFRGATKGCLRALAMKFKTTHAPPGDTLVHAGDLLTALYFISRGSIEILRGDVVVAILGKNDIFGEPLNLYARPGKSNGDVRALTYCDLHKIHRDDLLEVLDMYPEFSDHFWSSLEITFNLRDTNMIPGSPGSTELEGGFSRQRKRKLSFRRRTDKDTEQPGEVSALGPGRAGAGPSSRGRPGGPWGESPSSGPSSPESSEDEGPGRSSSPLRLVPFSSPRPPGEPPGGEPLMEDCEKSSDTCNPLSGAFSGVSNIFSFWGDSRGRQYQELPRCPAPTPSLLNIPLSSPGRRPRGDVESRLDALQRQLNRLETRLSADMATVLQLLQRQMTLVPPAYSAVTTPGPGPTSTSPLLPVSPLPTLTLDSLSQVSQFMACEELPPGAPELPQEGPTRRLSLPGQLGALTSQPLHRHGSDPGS

SMILES | hERG current change (%, negative = inhibition) at 1uM
COc1cccc(CC(=O)OCC(=O)NNC(=O)c2ccc([N+](=O)[O-])cc2)c1 | 1.8%
CCc1cccc(NC(=O)CCC(=O)O)c1 | -4.13%
CSc1cccc(NC(=S)N(Cc2ccccc2)Cc2ccccn2)c1 | 3.13%
O=c1c2c3c(sc2ncn1/N=C/c1ccncc1)CCCC3 | 18.4%
Cc1cc(C(=O)CCl)c(C)n1CCc1ccc(Cl)cc1 | 21.6%
COc1ccc(N(CC(=O)N2CCN(Cc3ccc4c(c3)OCO4)CC2)S(C)(=O)=O)cc1OC | 17.6%
CCC(c1nnnn1Cc1ccccc1)N(Cc1cc2cc(OC)ccc2[nH]c1=O)CC1CCCO1 (centres unmarked) | 4.7%
COC(=O)C1=C(C)NC(=O)NC1c1ccccc1 (centres unmarked) | 5.58%
CCOC(=O)CNC(=O)c1ccccc1Br | 7.12%
Cc1ccccc1C(=O)Nc1ccc(C(=O)N/N=C/c2ccc(O)c(Br)c2)cc1 | 4.7%
Cn1c(N)c(Sc2ccc([N+](=O)[O-])cc2)c(=O)n(C)c1=O | 5.01%
CC(C)(C)CC(=O)NCc1ccc(F)cc1 | 7.52%
CC(=O)N(c1c(C)n(C)n(-c2ccccc2)c1=O)C1(C(=O)NC2CCCC2)CCCCC1 | 0.507%
CCOC(=O)CSc1nc2ccccc2c(=O)n1CCCCCC(=O)NCc1ccco1 | -5.3%
CC[C@@H]1[C@H]2CCCC(=O)N3CC[C@@H](C[C@@H]1OC(=O)NCc1ccccc1)[C@@H]23 | 5.5%
Cc1ccc(C(=O)NC2CCCCCC2)cc1N1CCCC1=O | 5.47%
COc1ccc(C2SCC(=O)N2c2ccc(C)cc2)cc1 (centres unmarked) | 15.3%
O=c1ccc(-c2ccccc2)no1 | 10.7%
O=C(Nc1ccc(Nc2ccccc2)cc1)c1ccc(Cl)cc1Cl | 7.23%
COc1ccc(OCC(=O)N/N=C/C2CC=CCC2)cc1 (centres unmarked) | 7.11%
Cc1ccc(N2C(=O)C3CCC(C)(C2=O)C3(C)C)cc1C (centres unmarked) | 11.2%
O=C(N/N=C/c1ccc2c(c1)OCO2)C(=O)Nc1ccccc1 | 10.4%
NS(=O)(=O)c1cc2c(cc1C(F)(F)F)NCNS2(=O)=O | -6.31%

SMILES | hERG current change (%, negative = inhibition) at 1uM
COc1ccc(C(=O)OC(C)C(=O)NC(C)CCc2ccccc2)cc1OC (centres unmarked) | 3.33%
c1ccc2c(c1)OCC(c1nnc3sc(-c4cnccn4)nn13)O2 (centres unmarked) | -3.17%
CC(CCn1cccn1)NC(=O)CCc1nnc(CCc2ccccc2)o1 (centres unmarked) | -2.24%
CC(C)CC(=O)Nc1ccccc1-c1nnn(CC(=O)N2CCOCC2)n1 | -0.477%
Cn1cc(CCNC(=O)CCc2nnc(CCCCc3ccccc3)o2)cn1 | 7.57%
CCN(CC)CCNC(=O)c1ccc(NC(=O)c2cc(S(=O)(=O)N3CCCCC3)ccc2C)cc1 | 18.1%
CC(=NCCc1ccccc1)c1c(O)n(C)c(=O)n(C)c1=O | 8.91%
O=C(NCC1CCCN(C(=O)NCc2ccccc2)C1)c1ccc2c(c1)OCO2 (centres unmarked) | 4.39%
CC(=O)COc1ncnc2c(Cl)cc(Cl)cc12 | 18%
CCN(Cc1ccccc1)C(=O)c1ccc(CNS(=O)(=O)c2ccc(C)cc2)cc1 | 3.34%
COc1cc(CNCCNC(=O)c2nonc2N)ccc1OCc1ccc(Cl)nc1.Cl | -16.9%
CC1CCN(c2oc(-c3ccco3)nc2S(=O)(=O)c2ccccc2)CC1 | 8.03%
CCS(=O)(=O)NCCc1cc2ccc(C)cc2[nH]c1=O | -19.8%
O=S(Cc1ccc(Br)cc1)Cc1nnc(SCc2c(Cl)cccc2Cl)n1-c1ccccc1 (centres unmarked) | -9.62%
O=[N+]([O-])c1ccccc1S(=O)(=O)Nc1ccc(S(=O)(=O)Nc2nccs2)cc1 | 8.63%
CCc1ccc(NC(=O)c2ccccc2Br)cc1 | 9.42%
COc1ccc2c(C)c(C(=O)NCC(C)O)oc2c1OC (centres unmarked) | 6.93%
O=P(O)(O)CP(=O)(O)O | 3.83%
NC(=O)OCC(O)COc1ccc(Cl)cc1 (centres unmarked) | 9.22%
CCCC1(c2ccccc2)NC(=O)N(CC(=O)Nc2cc(C)ccc2OC)C1=O (centres unmarked) | 8.84%
Fc1cc(F)cc(-c2oncc2-c2nnnn2-c2ccccc2)c1 | 9.89%
CCOc1ccc(CCNC(=O)Cn2nc(C)c3c(C)n(-c4ccccc4)nc3c2=O)cc1OCC | 8.15%
C=CCn1c(SC(CCO)C(=O)NCc2ccco2)nc2sc3c(c2c1=O)CCC3 (centres unmarked) | 5.06%

SMILES | hERG current change (%, negative = inhibition) at 1uM
CN(C(=O)CSc1nnc(COc2ccccc2F)n1N)C1CCS(=O)(=O)C1 (centres unmarked) | 12.7%
CC(C)(C)c1ccc(C2SCC(=O)N2c2cccc(C(=O)O)c2)cc1 (centres unmarked) | 16%
NS(=O)(=O)c1cccc(NC(=O)c2cccnc2Oc2ccccc2)c1 | 10.6%
O=c1[nH]c(-c2ccc(Cl)cc2)cs1 | -1.9%
CCOC(=O)NN=C1CCC(c2ccccc2)CC1 (centres unmarked) | 11.7%
COc1ccc(/C=C/C(=O)NCCOc2ccc(C)cc2)cc1 | 10.5%
CCOc1cccc(C(=O)NC(=S)Nc2cccnc2)c1 | 1.86%
Nn1c(Cc2cccc3ccccc23)nnc1SCC(=O)NCC1CCCO1 (centres unmarked) | 0.675%
CCc1nc(OCc2ccco2)c2sc3nc4c(cc3c2n1)COC(C)(C)C4 | 6.8%
CCOC(=O)CSc1nnc(CNC(=O)c2cc(OC)c(OC)c(OC)c2)n1C | 3.51%
O=C1c2cccc3cccc(c23)C(=O)N1CC1CCN(S(=O)(=O)c2ccc(F)cc2)CC1 | 5.7%
Cc1c(N=C2Nc3cccc4cccc2c34)c(=O)n(-c2ccccc2)n1C | 13.6%
CCOC(=O)C1CCCN(C(=O)c2ccc(S(=O)(=O)N3CCCC3)cc2)C1 (centres unmarked) | 16%
CS(=O)(=O)c1ccc(C(=O)NNC(=O)c2ccccc2-n2cccc2)cc1 | 15.4%
CCC(=O)Nc1ccc2c(c1)nc(CCN1CCCCC1)n2C | -0.837%
COc1ccc(NC(=O)CCn2c(=O)c3cccn3c3ccccc32)c(OC)c1 | 12.6%
Cc1c(C(=O)Nc2cccc(-c3nnc4n3CCCCC4)c2)oc2ccccc12 | 5.68%
CC(C)(C)NC(=O)CSc1nc2ccccc2c(=O)[nH]1 | 13.9%
O=C(C[n+]1cccc(CNC(=O)c2ccc(OC(F)F)cc2)c1)Nc1cccc(C(F)(F)F)c1.[Cl-] | 6.44%
CCOc1cccc(C(=O)N(Cc2ccco2)C2CCS(=O)(=O)C2)c1 (centres unmarked) | 2.6%
O=C(O)CCc1ccc(-c2cccs2)n1CC(=O)Nc1ccccc1C(F)(F)F | 15.7%
O=C(CNS(=O)(=O)c1ccccc1)N1CCc2ccccc2C1 | 11.4%
CC12COC3(C(=O)Nc4nccs4)CC1CCC32C (centres unmarked) | 9.81%

SMILES | hERG current change (%, negative = inhibition) at 1uM
COc1ccc(N(CC(=O)O)S(C)(=O)=O)cc1OC | 7.4%
COc1cccc(CNC(=O)C2CC(=O)N(C3CCCCCCC3)C2)c1 (centres unmarked) | 19.6%
Cc1sc2ncn(CC(=O)NCc3ccccn3)c(=O)c2c1S(=O)(=O)N1CCOCC1 | 9.35%
CCOC(=O)C1=C(C)N=C2SCCC(=O)N2C1c1cccs1 (centres unmarked) | -11.6%
CCOC(=O)C1=C(C)N=C2SC(C)C(=O)N2C1c1cccc(F)c1 (centres unmarked) | -2.5%
Cc1ccc(NC(=O)Cn2cc3c(n2)CCC(C)C3)cc1 (centres unmarked) | 6.29%
N#C/C(=C(/O)c1ccccc1F)c1nc2cc(C(F)(F)F)ccc2s1 | 15.6%
O=C(CN1C(=O)C2CCCCC2C1=O)N1CCN(c2ncccn2)CC1 (centres unmarked) | 9.92%
Clc1ccc(CO/N=C2\CCCc3nonc32)c(Cl)c1 | 4.71%
COc1ccc(Cc2n[nH]c(=S)n(N)c2=O)cc1 | 15.6%
CN(C)S(=O)(=O)c1ccc(C(=O)NCC(c2cccs2)N2CCOCC2)cc1 (centres unmarked) | 8.86%
COc1ccc(-c2cc(C(F)(F)F)n3ncc(C(=O)NCC4CCCO4)c3n2)cc1OC (centres unmarked) | 14.6%
COCCN(Cc1ccccc1)C(=O)c1ccc2c(c1)NC(=O)CS2 | 11.4%
COc1cc(Cl)c(CN2CCCC(CO)(Cc3ccccc3F)C2)cc1OC (centres unmarked) | 6.94%
Cn1c(CNC(=O)c2ccccc2F)nnc1SCCOc1ccccc1 | 8.23%
COC(=O)C1=C(c2c(C)noc2C)C[C@@H]2CC[C@H]1N2C(=O)NCCCOC(C)C | 5.06%
CCN(CC)C(CNS(=O)(=O)c1ccc(Cl)cc1)c1ccccc1 (centres unmarked) | 9.21%
CC1CC(C)CN(C(=O)COC(=O)C2CCN(S(=O)(=O)c3ccc4c(c3)OCCO4)CC2)C1 (centres unmarked) | 15.4%
CN=C1S/C(=C\c2cc(C)n(-c3ccccc3F)c2C)C(=O)N1C | 3.99%
Cn1c(-c2cccc([N+](=O)[O-])c2)cnc1NCc1ccc(C#N)cc1.O=C(O)C(=O)O | -56.4%
